{"source": "PubChem BioAssay AID463173", "about": "(ICCB-Longwood Screening Facility, Harvard Medical School, 2010)", "note": "Hit rate of the full screen: of about 52,000 compounds, about 4,300 (8.3%) were called active. No stated cut-off is given here; in the data, active means survival mostly below about 52% (no sharp cut-off); inactive means mostly above about 56%. This is one part of the list."}
{"system": "DeltatarO mutant", "assay": "growth inhibition of S. aureus wild type versus tarO mutant, primary screen, teichoic acid synthesis inhibitors, RN4220, OD600 (AID 463173)", "conditions": "OD600, 18 h, stronger effect = lower value, screened at 18.75 µg/mL (by protocol)"}
{"molecule": "COc1cccc(CNC(=O)Cc2csc3nc(-c4ccccc4)cn23)c1", "survival": "inactive: 83%"}
{"molecule": "COc1ccccc1OCc1nnc(-c2ccccc2)o1", "survival": "inactive: 53%"}
{"molecule": "CCCCOC(=O)c1ccc(OC(=O)c2sc3ncn(Cc4ccccc4Cl)c(=O)c3c2C)cc1", "survival": "inactive: 90%"}
{"molecule": "N#Cc1nc2ccccc2[nH]1", "survival": "inactive: 92%"}
{"molecule": "COc1ccccc1CNC(=O)c1cnc(N(C)C)nc1", "survival": "inactive: 78%"}
{"molecule": "COc1ccc(CC(=O)Nc2sc3c(c2C(=O)Nc2cccc(C)c2)CCCCC3)cc1", "survival": "active: 43%"}
{"molecule": "Cc1ccccc1Nc1c(-c2ccc(Br)cc2O)nc2sccn12", "survival": "inactive: 64%"}
{"molecule": "CCOc1ccc(NC(=O)Cn2cc(C(=O)c3ccc(OC)cc3)c(=O)c3cc4c(cc32)OCO4)cc1", "survival": "inactive: 83%"}
{"molecule": "COc1ccccc1N1CCN(C(c2ccc(Cl)cc2)c2nnc(-c3cccc(F)c3)o2)CC1", "note": "(centres undefined)", "survival": "inactive: 62%"}
{"molecule": "O=C(Nc1ccc(Cl)c(-c2nc3ccccc3o2)c1)c1ccc(-c2cccc([N+](=O)[O-])c2)o1", "survival": "active: 37%"}
{"molecule": "Cc1ccc(Nc2cc(C)nc(-n3nc(C)cc3C)n2)cc1", "survival": "inactive: 115%"}
{"molecule": "O=C(Nc1ccc(OC(F)(F)F)cc1)C1CCN(S(=O)(=O)c2ccc3[nH]c(=O)ccc3c2)CC1", "survival": "inactive: 92%"}
{"molecule": "Cc1ccc(N2CC(C(=O)NCCS(=O)(=O)N3CCN(c4ccccc4F)CC3)CC2=O)cc1", "note": "(centres undefined)", "survival": "inactive: 80%"}
{"molecule": "Cc1ccc(NC(=O)CSc2nc3ccc(Br)cc3[nH]2)c(C)c1", "survival": "active: 42%"}
{"molecule": "CCn1c(CNc2ccc(C)cc2)nnc1SCc1ccccc1", "survival": "inactive: 115%"}
{"molecule": "CC1=C(c2ccc(C(C)C)cc2)S(=O)(=O)NC1=NCc1ccccc1C", "survival": "inactive: 77%"}
{"molecule": "CN(C)CCN(C(=O)c1ccco1)c1nc2c(F)cc(F)cc2s1", "survival": "inactive: 72%"}
{"molecule": "CC1CCN(C(=O)CSc2c3c(nc4ccc(Cl)cc24)CCCC3)CC1", "survival": "active: 0%"}
{"molecule": "O=C(COc1ccc(F)cc1)Nc1nnc(S(=O)(=O)N2CCc3ccccc32)s1", "survival": "active: 17%"}
{"molecule": "CCOc1ccc(N(Cc2ccccc2)C(=O)c2nc(SCC)ncc2Cl)cc1", "survival": "inactive: 106%"}
{"molecule": "Cc1cccc(NC(=O)CSc2nc3ccccc3nc2N2CCC(C)CC2)c1", "survival": "active: 8%"}
{"molecule": "Cc1ccc(-n2nc(C(=O)N3CCN(c4ccc(F)cc4)CC3)c(=O)n(C)c2=O)cc1", "survival": "inactive: 67%"}
{"molecule": "COc1ccc2nc(NC(=O)c3nc(S(=O)(=O)Cc4ccccc4F)ncc3Cl)sc2c1", "survival": "inactive: 61%"}
{"molecule": "Cc1ccc(-c2noc(CNC(=O)COc3cc(C)c(Br)c(C)c3)n2)cc1", "survival": "inactive: 80%"}
{"molecule": "CCOCCc1nnc(NC(=O)C(=O)c2cc(C)n(-c3cccc(C)c3)c2C)s1", "survival": "inactive: 65%"}
{"molecule": "CCOc1ccc(CNC(=O)c2ccc3c(c2)sc2nc(-c4ccccc4)cn23)cc1", "survival": "inactive: 74%"}
{"molecule": "O=C(NC1CCCCC1)c1ccc2c(c1)N(Cc1cccc(F)c1)C(=O)c1ccccc1S2", "survival": "inactive: 88%"}
{"molecule": "O=C(NC1CCCCC1)c1ccc2c(c1)sc1nc(-c3ccc(F)cc3)cn12", "survival": "inactive: 62%"}
{"molecule": "CCCCc1nn2c(=O)cc(COC(=O)c3cccc(NC(=O)c4cccc(Cl)c4)c3)nc2s1", "survival": "inactive: 77%"}
{"molecule": "Cc1ccc(CNC(=O)c2ccc(CS(=O)(=O)Cc3ccc(F)cc3)o2)cc1", "survival": "inactive: 77%"}
{"molecule": "Cc1ccccc1CN1CCc2nc(N3CCN(c4ncccn4)CC3)ncc2C1", "survival": "inactive: 88%"}
{"molecule": "CCOc1nc(-c2ccccc2)cc(-c2ccccc2)n1", "survival": "inactive: 69%"}
{"molecule": "CCCCCC[N+]1(CCO)CCOCC1", "survival": "inactive: 81%"}
{"molecule": "COc1ccc(CCCc2nnc(SCC(=O)Nc3cccc(C)c3)o2)cc1C", "survival": "inactive: 80%"}
{"molecule": "CCCCN(C)CCCNC(=O)Cn1ncc2c3ccccc3n(Cc3cccc(Cl)c3)c2c1=O", "survival": "inactive: 85%"}
{"molecule": "CCOc1ccccc1C(=O)Oc1c(S(=O)(=O)c2ccc(C)cc2)c(C)nn1-c1ccccc1", "survival": "inactive: 88%"}
{"molecule": "Cc1cccc(N2CCN(S(=O)(=O)c3cn(C)c(C)n3)CC2)c1C", "survival": "active: 0%"}
{"molecule": "NC(=O)c1cc2c([nH]c1=O)CCCCCCCCCC2", "survival": "inactive: 104%"}
{"molecule": "COc1ccc(NCc2cc3cc4c(cc3n(CC(=O)Nc3cccc(F)c3)c2=O)OCO4)cc1", "survival": "inactive: 112%"}
{"molecule": "O=C(O)CCC(=O)Nc1ccccc1O", "survival": "inactive: 80%"}
{"molecule": "c1ccc2c(c1)[nH]c1c(N3CCOCC3)ncnc12", "survival": "inactive: 68%"}
{"molecule": "COC(=O)c1ccc(CSc2nc3c([nH]c4ccccc43)c(=O)n2-c2ccc(F)cc2)o1", "survival": "inactive: 80%"}
{"molecule": "Clc1ccccc1N1CCN(Cc2nnc(-c3ccccc3)o2)CC1", "survival": "inactive: 50%"}
{"molecule": "O=C(Cn1c(=O)n(-c2ccccc2)c(=O)c2ccc(C(=O)NCc3ccc4c(c3)OCO4)cc21)Nc1ccc(F)cc1", "survival": "inactive: 64%"}
{"molecule": "Cc1ccc(Cl)cc1-n1c(CCC(=O)O)ccc1-c1cccs1", "survival": "active: 38%"}
{"molecule": "COc1cc(OC)c(NC(=O)Cn2c(=O)c(C(F)(F)F)nc3ccccc32)cc1Cl", "survival": "inactive: 66%"}
{"molecule": "CCc1cccc(NC(=O)Cn2c(=O)n(-c3ccccc3C)c(=O)c3c2c2cc(C)ccc2n3C)c1", "survival": "inactive: 85%"}
{"molecule": "CCc1ccc(C2CC(=O)c3c([nH]c(C(=O)OC4CCC(C)CC4)c3C)C2)cc1", "note": "(centres undefined)", "survival": "inactive: 89%"}
{"molecule": "COc1ccc(S(=O)(=O)NCc2cccn2Cc2cccc(C)c2)cc1Cl", "survival": "inactive: 91%"}
{"molecule": "COc1ccc(-c2cc(C(F)(F)F)nc(SCC(=O)N3CCCCC3)n2)cc1OC", "survival": "inactive: 71%"}
{"molecule": "CCc1cccc(C)c1NC(=O)C(CC)n1nc(C)c2c(C)n(-c3ccccc3)nc2c1=O", "note": "(centres undefined)", "survival": "inactive: 64%"}
{"molecule": "COc1ccc(-c2nc(SCC(=O)Nc3ccccc3)c(-c3ccc(F)cc3)[nH]2)cc1OC", "survival": "inactive: 49%"}
{"molecule": "COc1ccc(OC)c(S(=O)(=O)N2Cc3ccccc3CC2C(=O)Nc2ccc(C)cc2C)c1", "note": "(centres undefined)", "survival": "inactive: 62%"}
{"molecule": "CCS(=O)(=O)N1CCc2cc(C(=O)N3CCN(c4ccc(OC)cc4)CC3)ccc21", "survival": "active: 40%"}
{"molecule": "COc1cccc(-n2c(SCC(=O)N3CCc4ccccc43)nc3c([nH]c4ccccc43)c2=O)c1", "survival": "inactive: 81%"}
{"molecule": "O=C(Nc1ccc(F)cc1F)c1cccc2c1C(=O)N(C1CCCCC1)C2", "survival": "inactive: 94%"}
{"molecule": "CCN(CC)CCNc1nc2c(c(=O)n(C)c(=O)n2C)n1CCc1ccccc1", "survival": "inactive: 103%"}
{"molecule": "Cc1cccc(CSc2nc3c(c(=O)[nH]2)CCC3)c1", "survival": "inactive: 69%"}
{"molecule": "CSc1ncc(Cl)c(C(=O)Nc2cc(C(F)(F)F)ccc2Cl)n1", "survival": "inactive: 84%"}
{"molecule": "Cc1cnc(NC(=O)CSc2nc3sc4c(c3c(=O)n2C)CCCC4)s1", "survival": "inactive: 78%"}
{"molecule": "COc1cc2c(=O)n(Cc3ccco3)c(=O)n(CC(=O)Nc3ccc(F)cc3)c2cc1OC", "survival": "inactive: 71%"}
{"molecule": "CCOc1cc2[nH]c(=O)n(Cc3ccc(C(=O)N4CCN(c5ccccc5)CC4)cc3)c(=O)c2cc1OCC", "survival": "inactive: 98%"}
{"molecule": "Cc1nc(-c2ccc(Cl)cc2)sc1CCNC(=O)C(=O)Nc1ccc2c(c1)OCCO2", "survival": "inactive: 95%"}
{"molecule": "O=C(CSc1nc(=O)n(Cc2cccnc2)c2c1CCC2)Nc1cccc(Cl)c1", "survival": "inactive: 70%"}
{"molecule": "O=C(O)c1ccc(NCc2nc3ccccc3n2CCOc2ccccc2Cl)cc1", "survival": "inactive: 59%"}
{"molecule": "COCCn1c(=O)[nH]c2cc(C(=O)N3CCN(c4ccc(Cl)cc4)CC3)ccc2c1=O", "survival": "inactive: 76%"}
{"molecule": "CCc1cc(C(=O)OC)c(NC(=O)CC2SC(=NC)N(C)C2=O)s1", "note": "(centres undefined)", "survival": "inactive: 106%"}
{"molecule": "Cc1ccc(CN2CCC(CNC(=O)c3cnn(-c4ccccc4)c3C3CCN(C(=O)OC(C)(C)C)CC3)CC2)cc1", "survival": "inactive: 77%"}
{"molecule": "COc1ccc(NC(=O)c2oc3ccc(S(=O)(=O)N4CCCCC4)cc3c2C)cc1Cl", "survival": "inactive: 77%"}
{"molecule": "COc1ccc(NC(=O)c2cc(C(C)=O)n3ccccc23)cc1", "survival": "inactive: 78%"}
{"molecule": "Cc1ccc2nc(NC(=O)c3nc(SCc4ccccc4F)ncc3Cl)sc2c1", "survival": "inactive: 54%"}
{"molecule": "O=C(CSc1ncc2c(n1)-c1cc(Cl)ccc1N(Cc1ccccc1)S2(=O)=O)Nc1ccc(F)cc1F", "survival": "inactive: 70%"}
{"molecule": "CC(C)Oc1ccc(C(=O)N2CCN(c3nc4c(F)cc(F)cc4s3)CC2)cc1", "survival": "inactive: 108%"}
{"molecule": "O=c1c(N2CCN(c3ccccc3)CC2)csc2ccc(Cl)cc12", "survival": "inactive: 71%"}
{"molecule": "O=C(CCSCc1cccc(Cl)c1)NCc1ccccc1Cl", "survival": "inactive: 60%"}
{"molecule": "CCCCn1cc(S(=O)(=O)c2ccccc2)c(=O)c2cc(F)c(N3CCN(CCC)CC3)cc21", "survival": "inactive: 78%"}
{"molecule": "CC1CCCN(c2ncnc3c2cnn3-c2ccc(F)cc2)C1", "note": "(centres undefined)", "survival": "inactive: 81%"}
{"molecule": "CCN1c2ccccc2-n2cccc2C12CCN(C(=O)Nc1ccccc1Br)CC2", "survival": "inactive: 91%"}
{"molecule": "CCOCCn1ccc2c(OCC(=O)NCc3ccc(F)cc3)cccc2c1=O", "survival": "inactive: 105%"}
{"molecule": "CCOC(=O)N1CCC(NC(=O)c2cnn(-c3ccc(F)cc3)c2-n2cccc2)CC1", "survival": "inactive: 102%"}
{"molecule": "COc1ccc(N(C)C(=O)c2nn(-c3ccc(C)cc3)c(=O)n(C)c2=O)c(OC)c1", "survival": "inactive: 82%"}
{"molecule": "Cc1cc(C)cc(NC(=O)N2CCC(C(N)=O)(N3CCCCC3)CC2)c1", "survival": "inactive: 103%"}
{"molecule": "COc1ccc(CNC(=O)CC(C)n2nc(C)cc2C)cc1", "note": "(centres undefined)", "survival": "inactive: 86%"}
{"molecule": "CCN(CC)c1cc(C)c2cc(NC(=O)/C=C/c3ccccc3Cl)ccc2n1", "survival": "inactive: 53%"}
{"molecule": "N#CCC(=O)N/N=C/c1ccc(OC2CSC2)cc1", "survival": "inactive: 80%"}
{"molecule": "COc1ccc(N2CC(NC(=O)C(=O)c3c[nH]c4ccccc34)CC2=O)cc1", "note": "(centres undefined)", "survival": "inactive: 80%"}
{"molecule": "Cc1ccc(-c2nn(-c3ccc(F)cc3F)c3c2cnc2ccc(F)cc23)cc1", "survival": "inactive: 70%"}
{"molecule": "Cc1cccc(N(C)S(=O)(=O)c2ccc(-c3cc(C)no3)s2)c1", "survival": "inactive: 128%"}
{"molecule": "Cc1ccc(S(=O)(=O)N2CCc3cc(C(=O)N(C)Cc4ccccc4)ccc32)cc1", "survival": "inactive: 74%"}
